88 compounds from PubChem BioAssay AID463173 (ICCB-Longwood Screening Facility, Harvard Medical School, 2010) can be followed below.

Screen size: about 52,000 compounds; about 4,300 (8.3%) were called active. No stated cut-off is given here; in the data, active means survival mostly below about 52% (no sharp cut-off); inactive means mostly above about 56%. The list shows a part of the results.

The experiment deals with DeltatarO mutant. Put plainly: growth inhibition of S. aureus wild type versus tarO mutant, primary screen, teichoic acid synthesis inhibitors, RN4220, OD600 (AID 463173). The conditions noted are these: OD600, 18 h, active compounds read low, screened at 18.75 µg/mL (by protocol).
In the case of `O=C(OCC(=O)N1CCN(c2ccccc2)CC1)c1ccccn1`, the survival is inactive: 97%.

As for `COc1ccc(NC(=O)CSC2=Nc3ccccc3C3=NC(CC(=O)NCc4ccccc4OC)C(=O)N23)cc1Cl` (stereo not drawn), the survival is inactive: 68%.

`COc1ccc(-c2nc3c4ccccc4n(CC(=O)Nc4ccc(C(C)C)cc4)c(=O)n3n2)cc1`: the survival was inactive: 78%.

Regarding `CC(C)(C)c1ccc(-c2nc(SCCOc3ccc(Cl)cc3)n3[nH]c(=O)cc3n2)cc1`, the survival was inactive: 112%.

Turning to `Cc1ccccc1-n1c(SCC(=O)Nc2ccc(Cl)cc2Cl)nc(O)cc1=O`, the survival is inactive: 75%.

For `COc1ccc(-c2nc(C)c(CCNC(=O)C(=O)Nc3ccccc3F)s2)cc1`, the survival is inactive: 115%.

For `Cc1ccc(NC(=O)Cn2c(=O)n(CC3CCC(C(=O)NC(C)C)CC3)c(=O)c3sccc32)cc1` (stereo not drawn), the survival was inactive: 74%.

With `COc1ccc(C(CNC(=O)COc2cc(C)cc(C)c2)N2CCCCC2)cc1` (stereo not drawn), the survival was inactive: 90%.

For the compound `COc1ccccc1-n1nc(-c2ccccc2)c2cnc3c(F)cc(F)cc3c21`, the survival is inactive: 112%.

Regarding `COc1ccc(CCN2CCC(CNC(=O)c3cnn(-c4ccc(C)cc4)c3C3CCN(C(=O)OC(C)(C)C)CC3)CC2)cc1`, the survival is inactive: 125%.

On to `CCN1CCN(CCC(=O)Nc2ccc(F)cc2)CC1`, for which the survival was inactive: 100%.

For `O=C(CC(=O)NN=C1CCCC1)NCc1ccccc1`, the survival was inactive: 98%.

`COc1cc(C(=O)N2CCN(CCc3ccncc3)CC2)cc(OC)c1OC`: the survival was inactive: 89%.

As to `COc1cccc(-n2c(=O)c3c(C)c(C(=O)N(C)C)sc3n(Cc3cccc(C)c3)c2=O)c1`, the survival is active: 37%.

`CC(C)(C)c1cc(-c2ccccc2)n[nH]1`: the survival is inactive: 102%.

For `Cc1nc2ccccc2n1C(C)c1ccccc1` (stereo not drawn), the survival is inactive: 77%.

For `CCC(=O)OCc1cnc(C)c2oc(=O)c(C(=O)Nc3ccc(CC)cc3)cc12`, the survival was inactive: 130%.

As to `CC(NC(=O)C1CCN(C(=O)N2CCOc3ccc(Cl)cc32)CC1)c1ccccc1` (stereo not drawn), the survival is inactive: 50%.

With `Cc1[nH]c(=O)[nH]c(=O)c1Oc1ccccc1`, the survival was inactive: 103%.

In the case of `COc1ccc(-c2nc3c(c(SCc4cc(C)ccc4C)n2)Cc2c(CO)cnc(C)c2O3)cc1`, the survival was inactive: 83%.

Turning to `COc1ccc(N2CCN(C(=O)c3nn(C)c4c3CS(=O)(=O)c3ccccc3-4)CC2)cc1`, the survival was inactive: 69%.

In the case of `COc1ccc(CCNC(=O)CS(=O)Cc2nc(-c3ccc(C)cc3)oc2C)cc1OC` (stereo not drawn), the survival is inactive: 76%.

Take `O=C(CCSCc1ccc(Cl)cc1)N1CCN(c2ccccc2F)CC1`: the survival is inactive: 77%.

On to `CCN(c1ccccc1)S(=O)(=O)c1ccc(NC(=O)c2cc(=O)c3ccc(C)c(C)c3o2)cc1`, for which the survival is inactive: 64%.

With `Cc1ccc2c(CC(=O)Nc3c(C(=O)c4ccc(F)cc4)oc4ccccc34)coc2c1`, the survival was inactive: 60%.

`CCOC(=O)c1ccc(NC(=O)CCc2c(C)n(CC)c3cc(-c4ccccc4OC)nn3c2=O)cc1`: the survival is inactive: 92%.

With `CCOC(=O)c1[nH]c(C)c(CCC(=O)NCc2ccc(C)cc2)c1C`, the survival was inactive: 75%.

For `CCc1cccc(-n2c(=O)c3cccnc3n2CC(=O)NCc2ccccc2Cl)c1`, the survival was inactive: 95%.

Take `COc1ccccc1Nc1nn2c(=O)c3ccc(C(=O)Nc4ccc(F)cc4)cc3nc2s1`: the survival is inactive: 86%.

With `CCCN1C(=O)c2ccccc2NC1c1cc(OC)c(OC)c(OC)c1` (stereo not drawn), the survival was inactive: 96%.

As for `NC(=O)c1cc(S(=O)(=O)NCc2ccc(Br)cc2)cs1`, the survival is inactive: 99%.

For the compound `CN1C(=O)N(C)C2(CC1(C)C)CC(C)(C)N(C)C(=O)N2C`, the survival was inactive: 102%.

On to `CCOc1ccc2oc(=O)cc(CN3CCN(C(=O)c4cccc(F)c4)CC3)c2c1`, for which the survival was active: 31%.

Turning to `CCCN(CCC)CCNC(=O)Cn1ncc2c([nH]c3ccc(C)cc32)c1=O`, the survival was inactive: 74%.

Consider `CC(=O)N1c2ccccc2NC(=O)C1CC(=O)Nc1cccc(C)c1` (stereo not drawn), for which the survival was inactive: 100%.

`CC1CCN(S(=O)(=O)c2cc(C(=O)NCCc3ccccc3)n(C)c2)CC1`: the survival is inactive: 89%.

As for `Cc1ccc(C)c(N2CCN(C(=O)c3cc4cc5ccc(C)cc5nc4s3)CC2)c1`, the survival is inactive: 95%.

As for `CC(C)(C)c1ccc(C(=O)Nc2cc(-c3ccccc3)nn2-c2ccccc2)cc1`, the survival was inactive: 83%.

In the case of `COc1ccc(N2CCN(C(=O)c3ccc(NC(=O)c4nsc5ccccc45)cc3)CC2)cc1`, the survival is inactive: 84%.

`O=C(/C=C\c1ccc2c(c1)OCO2)NC1CC(=O)N(c2ccc(F)cc2)C1` (stereo not drawn): the survival was inactive: 80%.

As to `CCOCCCNC(=O)c1cc2c(=O)n3ccccc3nc2s1`, the survival was inactive: 89%.

In the case of `CCOc1ccc(-n2c(=O)c3c4c(sc3n(Cc3cc(=O)n5cc(Cl)ccc5n3)c2=O)CCC4)cc1`, the survival is active: 64%.

For the compound `CCc1ccc(NC(=O)Cn2c(=O)n(Cc3nc(C)no3)c(=O)c3cc4c(cc32)OCO4)cc1`, the survival is inactive: 82%.

On to `COc1ccccc1NC(=O)CSc1nnc(-c2nonc2NC(C)=O)n1-c1ccccc1`, for which the survival was inactive: 63%.

For `CN1CCN(C(=O)c2ccc(C(C)(C)C)cc2)CC1`, the survival was inactive: 90%.

For `Cc1ccc(CNc2nc3c(S(=O)(=O)c4ccc(C)c(C)c4)nnn3c3ccc(Cl)cc23)cc1`, the survival was inactive: 87%.

Take `O=C(O)C1CC=CCC1C(=O)N(Cc1ccccc1)c1ccccc1` (stereo not drawn): the survival was inactive: 77%.

For `O=C(CN1CCN(c2ccc(Cl)cc2)CC1)Nc1ccc(Cl)c(C(F)(F)F)c1`, the survival is inactive: 85%.

Consider `Cc1ccc(CNC(=O)CCn2ccc3cc(S(=O)(=O)N4CCCC4)ccc32)cc1`, for which the survival is inactive: 68%.

Consider `COc1cc(-c2nc3cc(Cl)ccc3o2)cc(OC)c1OC`, for which the survival is inactive: 87%.

Consider `Cc1cccc(-c2nc(CCNC(=O)c3ccccc3Br)cs2)c1`, for which the survival is inactive: 128%.

`CCOC(=O)c1ccccc1NC(=O)N1CCCN(S(=O)(=O)c2ccc3c(ccn3CC)c2)CC1`: the survival was inactive: 70%.

Consider `CCOc1ccc2nc(NCCNC(=O)Nc3ccc(SC)cc3)c(C#N)cc2c1`, for which the survival was inactive: 100%.

Turning to `CCc1ccc(CNC(=O)C2CCCN(c3nn4cc(-c5ccc(F)cc5)nc4s3)C2)cc1` (stereo not drawn), the survival was inactive: 71%.

Take `O=C(Nc1cc(F)ccc1F)c1ccc2c(c1)nnn2C1CCCC1`: the survival is inactive: 77%.

In the case of `CCOc1ccc(-c2nc3c(C#N)c[nH]n3c2NC2CCCCC2)cc1`, the survival is inactive: 52%.

For the compound `CCOC(=O)C1CCN(C(=O)C2CCN(c3nnc(C)c4c(C)n(-c5ccccc5)nc34)CC2)CC1`, the survival was inactive: 116%.

Turning to `Cc1nn(CC(=O)NCc2ccccc2Cl)c(=O)c2cccn12`, the survival is inactive: 91%.

With `CCCC(=O)Nc1cc(C(=O)NCc2ccc(OC)cc2)ccc1S(=O)(=O)c1ccc(Cl)cc1`, the survival is inactive: 73%.

Turning to `COc1ccc(NC(=O)CSc2nnc3scc(-c4ccc(Cl)cc4)n23)cc1`, the survival was inactive: 95%.

Consider `CCOC(=O)c1c(C)c(-c2ccccc2)n(CC(=O)Nc2cccc(F)c2)c1C`, for which the survival is inactive: 75%.

For `COC(=O)c1sccc1S(=O)(=O)N(CC(=O)NCc1ccccc1)c1ccc(C)c(C)c1`, the survival is inactive: 55%.

As for `Cn1nnnc1SCCNCc1ccc(OCc2ccccc2)cc1`, the survival is inactive: 72%.

Turning to `Cc1cccc(NC(=O)CN2C(=O)COc3ccc(S(=O)(=O)N4CCC(C)CC4)cc32)c1C`, the survival is inactive: 82%.

For `CCN(CC)CCCNC(=O)c1nn(-c2ccc(OC)c(Cl)c2)c(=O)c2c1c1ccccc1n2C`, the survival was inactive: 126%.

As to `Cc1ccc(S(=O)(=O)N(CC(=O)N2CCc3ccccc3C2)c2ccc(C)c(C)c2)cc1`, the survival is inactive: 55%.

On to `Cc1ccc(N2CCN(S(=O)(=O)N3CCOCC3)CC2)cc1Cl`, for which the survival is inactive: 94%.

Consider `Cc1ccc(CNC(=O)Cn2c(=O)n(-c3ccc(C)c(F)c3)c(=O)c3sc4ccccc4c32)cc1`, for which the survival was inactive: 75%.

For the compound `O=C(Nc1noc2ccccc12)c1c(F)cccc1F`, the survival is inactive: 87%.

Take `Cc1cccc(NC(=O)CN2c3ccccc3S(=O)(=O)c3ccccc32)c1C`: the survival is active: 0%.

For the compound `CCc1nn(CC(=O)NCc2ccc(OC)cc2OC)c(=O)c2cc3c(OC)cccc3n12`, the survival was inactive: 68%.

Turning to `CCC(=O)N1CCc2cc(S(=O)(=O)NC(C(=O)NCCc3ccc(Cl)cc3)C(C)C)ccc21` (stereo not drawn), the survival is inactive: 99%.

On to `COc1ccc(-c2cc(OC(=O)c3ccc(F)cc3)c3c(C)oc(C)c3c(=O)c2)cc1OC`, for which the survival was inactive: 79%.

As for `O=C(Nc1ccc(N2CCCCC2)cc1)c1cccs1`, the survival was inactive: 88%.

`Cc1ccc(Cc2c(C)nn(-c3nc(C)c(C(=O)N4CCCCC4C)s3)c2C)cc1` (stereo not drawn): the survival is inactive: 54%.

On to `COc1ccc(-c2noc(CSc3nnc(-c4ccccc4)n3-c3ccc(F)cc3)n2)c(OC)c1`, for which the survival was inactive: 88%.

With `COc1ccc(NC(=O)C2CCCN(S(=O)(=O)c3c(C)n[nH]c3C)C2)cc1OC` (stereo not drawn), the survival was inactive: 125%.

With `O=C(COCc1cc(-c2cccs2)on1)NCc1ccccc1Cl`, the survival is inactive: 74%.

On to `O=C1C=C(NCc2ccc(Cl)cc2)CC(c2ccco2)C1` (stereo not drawn), for which the survival was inactive: 110%.

`COc1cc(C2c3c(oc4ccccc4c3=O)C(=O)N2c2nc(C)c(C)s2)ccc1O` (stereo not drawn): the survival is inactive: 51%.

On to `Cc1c(C(=O)OC2CCCCC2)[nH]c2c1C(=O)CC(c1ccccc1Cl)C2` (stereo not drawn), for which the survival was inactive: 86%.

As to `O=C(NCc1ccccc1F)C1CCN(Cc2cc3ccccc3n2Cc2cccc(Cl)c2)CC1`, the survival was inactive: 78%.

As to `Cc1cccn2c(=O)c(/C=C(\C#N)c3nc4ccccc4s3)c(Oc3ccc(Br)cc3)nc12`, the survival is inactive: 133%.

On to `Cn1c(=O)oc2cc(S(=O)(=O)CCC(=O)NCCc3ccccc3)ccc21`, for which the survival was inactive: 96%.

Consider `CCCOC(=O)c1ccc2c(c1)C(=O)N(c1ccccc1)C2=O`, for which the survival was inactive: 78%.

As for `Cc1ccccc1NC(=O)Nc1ccc2nc(N3CCN(C)CC3)cc(C)c2c1`, the survival is inactive: 88%.

For the compound `CC(=O)c1cc(-c2ccc(F)cc2)n(CC(=O)NC(C)c2ccccc2)c1C` (stereo not drawn), the survival is inactive: 74%.

Take `Cc1ccc(C)c(N2CCN(c3nccn4nc(-c5ccc(Br)cc5)cc34)CC2)c1`: the survival was inactive: 232%.
